# According to ChEMBL document CHEMBL4888484, “Replenishing the malaria drug discovery pipeline: Screening and hit evaluation of the MMV Hit Generation Library 1 (HGL1) against asexual blood stage Plasmodium falciparum ,using a nano luciferase reporter read-out” (2022):
# Out of some 150,000 compounds screened, about 540 (0.36%) showed an effect of 50% or more. The list shows a part of the results.
# System: Plasmodium falciparum
# Experiment: Primary screen in NF54 nanoGlo assay, in single point, at 2uM, 72h; a lower Z score goes with more inhibition
# Format: functional, Erythrocyte
# Conditions: timepoint 72 hour
SMILES,% Inhibition [%],Z score
Cc1[nH]cnc1CNC(=O)[C@H](C)N1CCCCC1,-10,1.8
CC[C@@H](C(=O)N1CC(c2nc(-c3cnccn3)no2)C1)c1ccccc1,0,0.04
O=C(NC1CC1)c1csc(COc2ccc3c(c2)[C@H](c2ccc(F)cc2)N(C(=O)c2ccco2)CC3)n1,19,-2.94
O=C1CC[C@]2(C(=O)NCCc3c[nH]c4ccccc34)CCC=C2N1C1CCCC1,-16,1.55
Cc1nc(N2CCC(OCc3cccnc3)CC2)c2ccsc2n1,9,-1.25
N#Cc1ccc(S(=O)(=O)c2c(C(=O)N3CCCCC3)cnc3ccc(F)cc23)cc1,-13,1.24
Cn1cc(C(=O)C[C@H]2CCCN2S(=O)(=O)c2ccc3c(c2)C(C)(C)C(=O)N3)cn1,3,-0.45
O=C(NCc1ccco1)NC1CCCCCC1,-5,0.55
CCCN(CCC)C(=O)[C@@H]1COC2(CCC(C)CC2)N1C(=O)c1ccc(F)cc1 (some centres undefined),-5,1.01
Cn1cnc(CCNC(=O)[C@@](C)(O)C2CC2)c1,-11,2.15
Cc1cccc(-n2nc(C)c3sc(N(C)CC(=O)N[C@@H](C)c4ccc(C)c(C)c4)nc32)c1,-4,0.6
CCCN1C[C@@H](NCc2cnc(N3CCCC3)s2)CC1=O,-3,0.4
CC1CCN([C@@H](C)C(=O)NC(C)(C)C)CC1,-11,1.16
O=S(=O)(Nc1ccc2nncn2c1)c1ccc(F)cc1F,-1,0.1
CC(C)[C@@H](C(=O)NC[C@H]1CC[C@H](C(=O)O)CC1)n1cnc2ccccc2c1=O,-9,1.28
COc1cc(OC)c(NC(=O)Cc2c(C(=O)O)c(C)cn2C)cc1Cl,2,-0.29
Cc1nc(C(=O)Nc2nccs2)c(-c2ccccc2)s1,-6,1.12
Cc1nnc(N(C)Cc2ccc(Cl)s2)c(C#N)c1C,-16,1.44
CC(=O)N1CC[C@@]2(O)CCN(Cc3nc(C)cc(-c4ccccc4)n3)C[C@H]2C1,-6,1.33
O=C(c1cc(Cl)c(Cl)[nH]1)N1CCC2(CC1)CNCCO2,19,-2.36
CCCc1cc(N2CCC3(CCC(=O)N(Cc4cccnc4)C3)CC2)nc(C)n1,-5,0.77

SMILES,% Inhibition [%],Z score
Cc1cnc(C2CN(Cc3ccccc3)C2)n1CC1CC1,-8,1.07
C[C@@H](CNC(=O)Nc1ccccc1N1CCOCC1)c1nccs1,-5,0.54
Cc1ccc(N2CCN(S(=O)(=O)c3ccc(Cl)cc3)[C@@H](C)C2=O)cc1F,-5,0.73
C=C(C)[C@H](NC(=O)c1cn[nH]c1C)c1ccc(F)c(F)c1,2,-0.34
COCCN(CC(C)C)C(=O)c1ccncc1,-8,1.15
O=C(NCc1cccnc1-c1ccsc1)c1ccc(Oc2nccs2)cc1,-5,0.84
c1ccc2c3c(ccc2c1)[C@@H](NCc1ccncc1)CCCO3,0,0.04
Cc1ccc(-c2nnc(NC(=O)c3c[nH]nc3-c3ccccc3)[nH]2)o1,-5,0.48
Cc1noc(C)c1CNC(=O)N1CC[C@@](O)(c2ccccc2)[C@H]2CCCC[C@H]21,-2,0.3
CCCCNCCOc1ccc(C)cc1Br,9,-1.2
Cc1cc(-c2ccc3c(=O)n(-c4ccccc4)[nH]c3n2)c(C)o1,-11,1.14
CN(c1ccccc1)S(=O)(=O)c1ccsc1-c1nc(-c2ccncc2)no1,-7,0.97
CC(=O)Nc1ccc(C(=O)Cn2c(=O)n(S(=O)(=O)c3ccccc3)c3ccccc32)cc1,-34,3.94
Cc1nnc(CNC2CC(NC(=O)OC(C)(C)C)C2(C)C)s1 (centres undefined),-2,0.25
O=C(NCC1(c2ccccc2)CCCCCC1)N1CCO[C@@H](CO)C1,-5,0.59
C[C@@H](Cc1cccs1)N(C)S(=O)(=O)Cc1ccon1,-5,0.52
Cc1cc(F)ccc1CS(N)(=O)=O,-5,0.92
CCn1ncc(-c2cc(C3CC3)nc(N)c2C#N)c1C,-17,2.14
CCCn1nccc1S(=O)(=O)N[C@H]1CCOC[C@@H]1Oc1ccccn1,7,-1.11
CC(C)C[C@@H]1CN(C(=O)c2ccc3[nH]ccc3c2)CC[C@]1(C)O,-6,1.18
c1ccc(N2CC[C@H](N3CCN(Cc4cccs4)CC3)C2)cc1,-2,0.4
